{"source": "the supplement of paper PMC11417369", "note": "± gives the standard deviation of the averaged measurements. The list shows a part of the results."}
{"test_system": "PfAP2-LT AP2 domain (GST-tagged)", "experiment": "gcPBM binding intensity (ln(normalized median fluorescence intensity)); higher = stronger DNA binding", "procedure,_shortened": "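An Agilent 4 × 180k array carrying primer-extended double-stranded 36-bp intergenic genomic probes and negative controls received GST-tagged P. falciparum DNA-binding domains expressed in E. coli, about 25 μg on average, for 1 h. The binding buffer contained 1× PBS, 1% milk, 0.2 mg/ml BSA, 0.5% salmon testes DNA and 0.03% Triton X-100. Binding intensity is the top Masliner-normalised natural-log median intensity across replicate spots of either probe orientation, read after Alexa488 anti-GST antibody staining and a 488 nm scan.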"}
{"sequence": "TAAATTTTTATTTGTAGTACTATATATATATATATA [XGTACX_site1026]", "gcPBM binding intensity (ln)": "8.9 ± 0.12"}
{"sequence": "TAATGAAAATATATAACACACAAAAGTTATAAATAT [CACACA_site1189]", "gcPBM binding intensity (ln)": "8.94 ± 0.4"}
{"sequence": "AAAAAATTGACTAATGCACACAATTACAGATATATA [CACACA_site5010]", "gcPBM binding intensity (ln)": "9.03 ± 0.38"}
{"sequence": "AAAGATAAAAAAAGTACACACACACCGATATATATA [CACACA_site9006]", "gcPBM binding intensity (ln)": "10 ± 0.14"}
{"sequence": "ACTTTAACCTGAACGGTGCATAAAATTTTGGCATTA", "gcPBM binding intensity (ln)": "8.71 ± 0.38"}
{"sequence": "AATATATATAAAAAGGGAAAAATATATAAATAGATA [XGTACX_negctrl_site52]", "gcPBM binding intensity (ln)": "8.68 ± 0.5"}
{"sequence": "TTTCATTAATCTAATAGTACAGAAAATTGAGAAAAA [XGTACX_site8395]", "gcPBM binding intensity (ln)": "8.27 ± 0.41"}
{"sequence": "TCTATTAATTAATATACACACATTATGTATATATAT [CACACA_site2541]", "gcPBM binding intensity (ln)": "9 ± 0.37"}
{"sequence": "GTATACAAACATATAAATATAAATGTATTATTTGTT [CACACA_negctrl_site756]", "gcPBM binding intensity (ln)": "8.78 ± 0.37"}
{"sequence": "TCGTGCATAAATCATACACACACACCGATATATATA [CACACA_site8767]", "gcPBM binding intensity (ln)": "9.59 ± 0.22"}
{"sequence": "AAAAAAAAAAAAAACGCACACATTTTTACAATTCTA [CACACA_site3271]", "gcPBM binding intensity (ln)": "9.04 ± 0.42"}
{"sequence": "TTTGTATCCTTTTTGACATGCAACCATTCGGGTACA [TGCATGCA_site506]", "gcPBM binding intensity (ln)": "8.59 ± 0.45"}
{"sequence": "TCACAATTTTTTAGTACACACATATAAATATATAAA [CACACA_site1537]", "gcPBM binding intensity (ln)": "8.64 ± 0.47"}
{"sequence": "AAAAAATTAATAAAAACACACAAAAAAAATAAACAA [CACACA_site1907]", "gcPBM binding intensity (ln)": "8.95 ± 0.57"}
{"sequence": "TTTGTTGTTTGGAGATGTACATATTTTACACTTTTT [XGTACX_site5965]", "gcPBM binding intensity (ln)": "9.02 ± 0.48"}
{"sequence": "ATTTCACAGAGACACACACACAATATATTTCCTTTT [CACACA_site7773]", "gcPBM binding intensity (ln)": "9.6 ± 0.34"}
{"sequence": "ATAAATATTTACAAAAGTACACATAACTTTAGATAT [XGTACX_site1685]", "gcPBM binding intensity (ln)": "8.78 ± 0.5"}
{"sequence": "TAAACATAATATTTAACACACATGAAGATGTATATT [CACACA_site1036]", "gcPBM binding intensity (ln)": "8.76 ± 0.39"}
{"sequence": "GTTTTGGCTAACTATTCACACATTAAAATATTACCA [CACACA_site5016]", "gcPBM binding intensity (ln)": "8.76 ± 0.44"}
{"sequence": "CACCATGATACATACACACAGACATATACGCATTCA [CACACA_site1008]", "gcPBM binding intensity (ln)": "9.46 ± 0.18"}
{"sequence": "ACAATCCACAGGGGCGCACACATATAAGCAGTATAT [CACACA_site3817]", "gcPBM binding intensity (ln)": "9.46 ± 0.46"}
{"sequence": "TTTATATTAAAATATTGTACGGACATTATTTTGTAA [XGTACX_site8128]", "gcPBM binding intensity (ln)": "8.44 ± 0.38"}
{"sequence": "CATAATATGACATACACACACAAAAAAAAAAAAATA [CACACA_site1285]", "gcPBM binding intensity (ln)": "9.47 ± 0.49"}
{"sequence": "AACCGGGCCTAAGATGTAATGCCTTAGCCTATAAAA [CACACA_negctrl_site479]", "gcPBM binding intensity (ln)": "8.54 ± 0.56"}
{"sequence": "ATAAAATATATGAAGACACACATAACATCATATTTT [CACACA_site3144]", "gcPBM binding intensity (ln)": "9.11 ± 0.33"}
{"sequence": "ACTATTATTAAAAATTGTACTTTCTATAAATTTTTT [XGTACX_site7825]", "gcPBM binding intensity (ln)": "8.57 ± 0.54"}
{"sequence": "TACATATTTTGTATATATTATTTATTTTATTAGTTT [XGTACX_negctrl_site85]", "gcPBM binding intensity (ln)": "8.6 ± 0.34"}
{"sequence": "TTCTGACTTGTTATAATTTGTATATCCGAAAAAATT [TGCATGCA_negctrl_site456]", "gcPBM binding intensity (ln)": "8.47 ± 0.37"}
{"sequence": "ATAACATCAGTATTATGTACATATGTAGGTAAATAA [XGTACX_site7066]", "gcPBM binding intensity (ln)": "9.27 ± 0.44"}
{"sequence": "TTTTATTGTTTTTTTTTTTTTTCTTTTTTTTTTTTT [CACACA_negctrl_site1094]", "gcPBM binding intensity (ln)": "8.47 ± 0.61"}
{"sequence": "CGTTATTATACACATACACACAGGAATAAAAAATTA [CACACA_site7373]", "gcPBM binding intensity (ln)": "9.06 ± 0.42"}
{"sequence": "AGAAACATATGGTAGTGTACTGTAAATTTATTCTTT [XGTACX_site8602]", "gcPBM binding intensity (ln)": "8.87 ± 0.49"}
{"sequence": "ATTTTGTGTAGTGATGCATGTTATATATATATTTGA [TGCATGCA_site422]", "gcPBM binding intensity (ln)": "9.01 ± 0.35"}
{"sequence": "TTTTATCAAATATTTATTTTATACATAAATATTTAT [XGTACX_negctrl_site528]", "gcPBM binding intensity (ln)": "8.66 ± 0.5"}
{"sequence": "CTTTTTATTTAGGAGGTGCATGTAATACGGAACATA", "gcPBM binding intensity (ln)": "8.49 ± 0.3"}
{"sequence": "TTTTGTTTAATATTCACACATATATATTTTTTATTT [CACACA_site5496]", "gcPBM binding intensity (ln)": "8.8 ± 0.49"}
{"sequence": "CATACTGTTATAAAATGTACGCATATACACACACAT [XGTACX_site7256]", "gcPBM binding intensity (ln)": "9.5 ± 0.27"}
{"sequence": "GATCTATACATGGGGACACACATCACTCTATATTTT [CACACA_site3408]", "gcPBM binding intensity (ln)": "9.17 ± 0.42"}
{"sequence": "ATTTGTTATATATTCTTTTATGTTAATAATTCGAAT [CACACA_negctrl_site378]", "gcPBM binding intensity (ln)": "8.7 ± 0.45"}
{"sequence": "TATGAATAAAAAAGAAGTACAAATTATATGAACGCA [XGTACX_site3018]", "gcPBM binding intensity (ln)": "8.96 ± 0.52"}
{"sequence": "AAAAAATACAAACACACACACACACCCATATATATA [CACACA_site3560]", "gcPBM binding intensity (ln)": "10.21 ± 0.057"}
{"sequence": "ATTATATTAAAATACACACCCAAATATTAAAAAGAT [CACACA_site5613]", "gcPBM binding intensity (ln)": "9.16 ± 0.24"}
{"sequence": "TGATAAAATGGGGAAATTCATTATATCATATCTTGG [CACACA_negctrl_site789]", "gcPBM binding intensity (ln)": "8.71 ± 0.35"}
{"sequence": "TTGGATAAAAAATATGTACACACATATAGATATCTA [CACACA_site8862]", "gcPBM binding intensity (ln)": "8.86 ± 0.44"}
{"sequence": "TTTGAAATATTAAATGCATGTTAAAACATAAAAATG [TGCATGCA_site680]", "gcPBM binding intensity (ln)": "8.55 ± 0.33"}
{"sequence": "TTTCTTCTTCTATTGTGTACGTAAAAAAAAAAAAAA [XGTACX_site772]", "gcPBM binding intensity (ln)": "8.07 ± 0.4"}
{"sequence": "GGTAATTTCCTTTTTTGTACTCATAGAAGGATAATA [XGTACX_site89]", "gcPBM binding intensity (ln)": "8.53 ± 0.37"}
{"sequence": "TAGTATCCAAGAAAAAGTACTTATTTTAATTTTTTA [XGTACX_site6243]", "gcPBM binding intensity (ln)": "8.3 ± 0.57"}
{"sequence": "TCAGATATATATATATAAATATATATTTTGAAATGT [CACACA_negctrl_site686]", "gcPBM binding intensity (ln)": "8.8 ± 0.46"}
{"sequence": "AATATTTATAAAGACACACAAACAAAAAGGATAAAA [CACACA_site2985]", "gcPBM binding intensity (ln)": "9.02 ± 0.49"}
{"sequence": "TCATTTAAGTAGACGCGTACGGAAATTACGAATCCT [XGTACX_site144]", "gcPBM binding intensity (ln)": "8.88 ± 0.45"}
{"sequence": "ATTATTATATTTATATGTACATAGAAAAAATTAAAT [XGTACX_site2058]", "gcPBM binding intensity (ln)": "8.58 ± 0.49"}
{"sequence": "AAAGTGGCCATATATTTTTTTTTTTTTTTCCTTATT [CACACA_negctrl_site485]", "gcPBM binding intensity (ln)": "8.52 ± 0.48"}
{"sequence": "AAAAATAAAGGATATACACACTAATTATATATATAT [CACACA_site5550]", "gcPBM binding intensity (ln)": "9.04 ± 0.39"}
{"sequence": "AAGACTGCACTTTAAGCACACAAATATATTTTTTTT [CACACA_site8337]", "gcPBM binding intensity (ln)": "8.86 ± 0.38"}
{"sequence": "AAGAAAAAAATTTAATTAAATGAAATTTTTGAATTA [TGCATGCA_negctrl_site25]", "gcPBM binding intensity (ln)": "8.15 ± 0.52"}
